Measurements published in the supplement of paper PMC8728848.
The other results are listed elsewhere or left out.

Tests used:
Test in all cases: glycan array binding signal (z-score within array); higher = stronger binding
Conditions in all cases: glycan notation: IUPAC condensed, linker removed
[1] = target: Fuc(a1-2)Gal(b1-4)[Fuc(a1-3)]GlcNAc(b1-2)Man(a1-6)[Fuc(a1-2)Gal(b1-4)[Fuc(a1-3)]GlcNAc(b1-2)Man(a1-3)]Man(b1-4)GlcNAc(b1-4)[Fuc(a1-6)]GlcNAc
Method in brief: (§1)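 Negative Z-scores can be read as non-binding. The Z-score is calculated within each array and then averaged across arrays of one protein sequence at different concentrations or buffers and across linkers. Arrays, 3228 in all, were curated from the Consortium for Functional Glycomics database and kept only where the protein sequence was available.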

[2] = target: Fuc(a1-2)Gal(b1-4)[Fuc(a1-3)]GlcNAc(b1-2)[Fuc(a1-2)Gal(b1-4)[Fuc(a1-3)]GlcNAc(b1-4)]Man(a1-3)[Fuc(a1-2)Gal(b1-4)[Fuc(a1-3)]GlcNAc(b1-2)Man(a1-6)]Man(b1-4)GlcNAc(b1-4)GlcNAc
Method in brief: as §1

[3] = target: Fuc(a1-2)Gal(b1-4)[Fuc(a1-3)]GlcNAc(b1-3)Gal(b1-4)[Fuc(a1-3)]GlcNAc
Method in brief: as §1

[4] = target: Fuc(a1-2)Gal(b1-4)[Fuc(a1-3)]GlcNAc(b1-3)Gal(b1-4)[Fuc(a1-3)]GlcNAc(b1-3)Gal(b1-4)[Fuc(a1-3)]GlcNAc
Method in brief: as §1

[5] = target: Fuc(a1-2)Gal(b1-4)[Fuc(a1-3)]GlcNAc(b1-3)GalNAc
Method in brief: as §1

[6] = target: Fuc(a1-2)Gal(b1-4)[Fuc(a1-3)]GlcNAc(b1-3)[Neu5Ac(a2-6)Gal(b1-4)GlcNAc(b1-6)]Gal(b1-4)Glc
Method in brief: as §1

[7] = target: Fuc(a1-2)Gal6S(b1-3)GlcNAc
Method in brief: as §1

[8] = target: Fuc(a1-2)Gal6S(b1-3)GlcNAc6S
Method in brief: as §1

[9] = target: Fuc(a1-2)Gal6S(b1-4)Glc
Method in brief: as §1

[10] = target: Fuc(a1-2)Gal6S(b1-4)Glc6S
Method in brief: as §1

[11] = target: Fuc(a1-2)Gal6S(b1-4)GlcNAc
Method in brief: as §1

[12] = target: Fuc(a1-2)[Gal(a1-3)]Gal
Method in brief: as §1

[13] = target: Fuc(a1-2)[Gal(a1-3)]Gal(b1-3)GalNAc
Method in brief: as §1

[14] = target: Fuc(a1-2)[Gal(a1-3)]Gal(b1-3)GlcNAc
Method in brief: as §1

[15] = target: Fuc(a1-2)[Gal(a1-3)]Gal(b1-3)GlcNAc(b1-2)Man(a1-3)[Fuc(a1-2)[Gal(a1-3)]Gal(b1-3)GlcNAc(b1-2)Man(a1-6)]Man(b1-4)GlcNAc(b1-4)GlcNAc
Method in brief: as §1

[16] = target: Fuc(a1-2)[Gal(a1-3)]Gal(b1-3)GlcNAc(b1-2)Man(a1-3)[Fuc(a1-2)[Gal(a1-3)]Gal(b1-3)GlcNAc(b1-2)Man(a1-6)]Man(b1-4)GlcNAc(b1-4)[Fuc(a1-6)]GlcNAc
Method in brief: as §1

[17] = target: Fuc(a1-2)[Gal(a1-3)]Gal(b1-3)GlcNAc(b1-3)GalNAc
Method in brief: as §1

[18] = target: Fuc(a1-2)[Gal(a1-3)]Gal(b1-4)Glc
Method in brief: as §1

[19] = target: Fuc(a1-2)[Gal(a1-3)]Gal(b1-4)GlcNAc
Method in brief: as §1

[20] = target: Fuc(a1-2)[Gal(a1-3)]Gal(b1-4)GlcNAc(b1-2)Man(a1-3)[Fuc(a1-2)[Gal(a1-3)]Gal(b1-4)GlcNAc(b1-2)Man(a1-6)]Man(b1-4)GlcNAc(b1-4)GlcNAc
Method in brief: as §1

[21] = target: Fuc(a1-2)[Gal(a1-3)]Gal(b1-4)GlcNAc(b1-2)Man(a1-3)[Fuc(a1-2)[Gal(a1-3)]Gal(b1-4)GlcNAc(b1-2)Man(a1-6)]Man(b1-4)GlcNAc(b1-4)[Fuc(a1-6)]GlcNAc
Method in brief: as §1

[22] = target: Fuc(a1-2)[Gal(a1-3)]Gal(b1-4)GlcNAc(b1-3)GalNAc
Method in brief: as §1

[23] = target: Fuc(a1-2)[Gal(a1-3)]Gal(b1-4)GlcNAc(b1-6)GalNAc
Method in brief: as §1

[24] = target: Fuc(a1-2)[Gal(a1-3)]Gal(b1-4)[Fuc(a1-3)]Glc
Method in brief: as §1

[25] = target: Fuc(a1-2)[Gal(a1-3)]Gal(b1-4)[Fuc(a1-3)]GlcNAc
Method in brief: as §1

[26] = target: Fuc(a1-2)[Gal(a1-3)]Gal(b1-4)[Fuc(a1-3)]GlcNAc(b1-3)GalNAc
Method in brief: as §1

[27] = target: Fuc(a1-2)[Gal(a1-4)]Gal(b1-4)GlcNAc
Method in brief: as §1

[28] = target: Fuc(a1-2)[GalNAc(a1-3)]Gal
Method in brief: as §1

[29] = target: Fuc(a1-2)[GalNAc(a1-3)]Gal(b1-3)GalNAc(a1-3)[Fuc(a1-2)]Gal(b1-4)GlcNAc
Method in brief: as §1

[30] = target: Fuc(a1-2)[GalNAc(a1-3)]Gal(b1-3)GlcNAc
Method in brief: as §1

[31] = target: Fuc(a1-2)[GalNAc(a1-3)]Gal(b1-3)GlcNAc(b1-2)Man(a1-3)[Fuc(a1-2)[GalNAc(a1-3)]Gal(b1-3)GlcNAc(b1-2)Man(a1-6)]Man(b1-4)GlcNAc(b1-4)GlcNAc
Method in brief: as §1

[32] = target: Fuc(a1-2)[GalNAc(a1-3)]Gal(b1-3)GlcNAc(b1-2)Man(a1-3)[Fuc(a1-2)[GalNAc(a1-3)]Gal(b1-3)GlcNAc(b1-2)Man(a1-6)]Man(b1-4)GlcNAc(b1-4)[Fuc(a1-6)]GlcNAc
Method in brief: as §1

[33] = target: Fuc(a1-2)[GalNAc(a1-3)]Gal(b1-3)GlcNAc(b1-3)GalNAc
Method in brief: as §1

[34] = target: Fuc(a1-2)[GalNAc(a1-3)]Gal(b1-3)GlcNAc(b1-6)GalNAc
Method in brief: as §1

[35] = target: Fuc(a1-2)[GalNAc(a1-3)]Gal(b1-4)Glc
Method in brief: as §1

[36] = target: Fuc(a1-2)[GalNAc(a1-3)]Gal(b1-4)GlcNAc
Method in brief: as §1

[37] = target: Fuc(a1-2)[GalNAc(a1-3)]Gal(b1-4)GlcNAc(b1-2)Man(a1-3)[Fuc(a1-2)[GalNAc(a1-3)]Gal(b1-4)GlcNAc(b1-2)Man(a1-6)]Man(b1-4)GlcNAc(b1-4)GlcNAc
Method in brief: as §1

[38] = target: Fuc(a1-2)[GalNAc(a1-3)]Gal(b1-4)GlcNAc(b1-2)Man(a1-3)[Fuc(a1-2)[GalNAc(a1-3)]Gal(b1-4)GlcNAc(b1-2)Man(a1-6)]Man(b1-4)GlcNAc(b1-4)[Fuc(a1-6)]GlcNAc
Method in brief: as §1

B1: Strep tagII-anxA1 (Homo sapiens), P04083 (protein)
chain: MAMVSEFLKQAWFIENEEQEYVQTVKSSKGGPGSAVSPYPTFNPSSDVAALHKAIMVKGVDEATIIDILTKRNNAQRQQIKAAYLQETGKPLDETLKKALTGHLEEVVLALLKTPAQFDADELRAAMKGLGTDEDTLIEILASRTNKEIRDINRVYREELKRDLAKDITSDTSGDFRNALLSLAKGDRSEDFGVNEDLADSDARALYEAGERRKGTDVNVFNTILTTRSYPQLRRVFQKYTKYSKHDMNKVLDLELKGDIEKCLTAIVKCATSKPAFFAEKLHQAMKGVGTRHKALIRIMVSRSEIDMNDIKAFYQKMYGISLCQAILDETKGDYEKILVALCGGN
- glycan array binding signal (z-score) [1]: 3.12
- glycan array binding signal (z-score) [2]: 1.11
- glycan array binding signal (z-score) [3]: -0.652
- glycan array binding signal (z-score) [4]: 0.054
- glycan array binding signal (z-score) [5]: -0.317
- glycan array binding signal (z-score) [6]: 0.406
- glycan array binding signal (z-score) [7]: 0.062
- glycan array binding signal (z-score) [8]: 1.69
- glycan array binding signal (z-score) [9]: 0.539
- glycan array binding signal (z-score) [10]: 1.09
- glycan array binding signal (z-score) [11]: 0.61
- glycan array binding signal (z-score) [12]: -0.612
- glycan array binding signal (z-score) [13]: 1.68
- glycan array binding signal (z-score) [14]: 1.29
- glycan array binding signal (z-score) [15]: 1.29
- glycan array binding signal (z-score) [16]: 2.17
- glycan array binding signal (z-score) [17]: -0.324
- glycan array binding signal (z-score) [18]: -0.314
- glycan array binding signal (z-score) [19]: -0.317
- glycan array binding signal (z-score) [20]: 1.69
- glycan array binding signal (z-score) [21]: 0.081
- glycan array binding signal (z-score) [22]: -0.68
- glycan array binding signal (z-score) [23]: -0.738
- glycan array binding signal (z-score) [24]: -0.689
- glycan array binding signal (z-score) [25]: 0.368
- glycan array binding signal (z-score) [26]: -0.675
- glycan array binding signal (z-score) [27]: -0.484
- glycan array binding signal (z-score) [28]: -0.39
- glycan array binding signal (z-score) [29]: -0.615
- glycan array binding signal (z-score) [30]: 0.999
- glycan array binding signal (z-score) [31]: 0.721
- glycan array binding signal (z-score) [32]: 0.353
- glycan array binding signal (z-score) [33]: -0.568
- glycan array binding signal (z-score) [34]: -0.634
- glycan array binding signal (z-score) [35]: -0.734
- glycan array binding signal (z-score) [36]: 0.675
- glycan array binding signal (z-score) [37]: -0.043
- glycan array binding signal (z-score) [38]: 1.15
